Results published in PubChem BioAssay AID1347417 (National Center for Advancing Translational Sciences (NCATS), 2020).
The campaign covered roughly 120,000 compounds. About 5,300 (4.4%) were called active. This list was built around the results that the source calls inconclusive (neither active nor inactive); the mix of calls is not that of the screen. The call rests on the fitted dose curve; in most records, active means well fitted inhibition curve with a large enough effect; inconclusive means small, poorly fitted or top-dose-only effect; inactive means no such curve, though single readings can be large or run the other way. Potencies of inconclusive entries are doubtful fits and often do not repeat.

Test: qHTS Primary assay for Inhibitors of Plasmodium falciparum Dd2 growth in vitro; further: nearly all actives have a fitted effect of over 65% in size
Conditions: P. falciparum Dd2 growth, SYBR Green, 72 h; series mostly up to 28.9 µM
Method in brief: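 Readout: SYBR Green fluorescence, 485 nm excitation, 535 nm emission, after ~16 h lysis at 37C. Before that, Dd2-infected red cells (2.5% hematocrit) grew 72 h with compound, 29 uM top final concentration.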
Potency means the concentration at half of the fitted maximal effect; tags describe the fitted curve by direction and shape.

Compound	Potency	outcome
O=C(Nc1cccc(Br)c1)C1CCN(c2cc(C(F)(F)F)ncn2)CC1	inconclusive: 4.47 µM [inhibitor, full curve, poor fit]	–
COc1ccc(-c2nc(CCNC(=O)c3c(F)cccc3Cl)cs2)cc1	inconclusive: 12.6 µM [inhibitor, partial curve, poor fit]	–
CC(C)CCN1CCc2c(sc3ncnc(N4CCOCC4)c23)C1	inconclusive: 5.01 µM [inhibitor, partial curve, poor fit]	–
CCC1=C(C(=O)OC)C(c2ccccc2C)N2C(CC(=O)NC3CC3)=CSC2=N1 (stereo unspecified)	inconclusive: 2.51 µM [inhibitor, single point]	–
COc1ccc(Cn2cc(C(=O)c3ccc(F)cc3)c(=O)c3cc4c(cc32)OCCO4)cc1	inconclusive: 14.1 µM [inhibitor, partial curve]	–
COc1ccc2nc3n(c2c1)[C@@H](CNCc1cnc2ccccc2c1)COC3	inconclusive: 31.6 µM [inhibitor, single point]	–
CCOc1ccc(-c2nnc(SCC(=O)NC(C)CC)nc2-c2ccc(OCC)c(OC)c2)cc1OC (stereo unspecified)	–	inactive
CC(=O)N1C[C@H](NC(=O)c2cccc(C)c2Cl)[C@@H](C(C)C)C1	inconclusive: 3.98 µM [inhibitor, single point]	–
COCCN1C(=O)N(Cc2cccc3ccccc23)C(=O)C12CCN(Cc1cn(C)nc1C)CC2	inconclusive: 14.1 µM [inhibitor, partial curve, poor fit]	–
CC(C)CCNC(=O)N1CCCC(Cn2c(C3CC3)nc3cccnc32)C1 (stereo unspecified)	–	inactive
COc1ccc2nc(C[C@@H]3C[C@@H](C(C)C)[C@H](CNC(=O)Nc4ccc(F)cc4)C=C3C)[nH]c2c1	inconclusive: 3.16 µM [inhibitor, partial curve, poor fit]	–
Cc1ccccc1C(=O)N[C@H]1[C@H](O)[C@H](O)C[C@@H]1c1ccccc1C	inconclusive: 5.01 µM [inhibitor, single point]	–
CCSc1nc2c([nH]c3ccccc32)c(=O)n1-c1cccc(OC)c1	inconclusive: 17.8 µM [inhibitor, single point]	–
COc1ccc(Br)cc1CNC(=O)c1cnc2sc(N3CCCCCC3)nn2c1=O	inconclusive: 17.8 µM [inhibitor, single point]	–
CCn1c(CO)nnc1C1CC(NC(=O)c2cnn3cc(C)cnc23)C1 (stereo unspecified)	inconclusive: 8.91 µM [inhibitor, partial curve]	–
COc1cccc(-c2nc(N3CCOCC3)cc3c2CN(Cc2ccccc2)C3=O)c1OC	active: 11.2 µM	–
